In PubChem BioAssay AID1508623 (National Center for Advancing Translational Sciences (NCATS), 2021):
The campaign covered roughly 48,000 compounds. About 450 (0.94%) were called active. Another 19% or so got no clear call; they are omitted. Calls follow the shape of the dose curve; as a rule, active = well fitted inhibition curve with a large enough effect; inconclusive = small, poorly fitted or top-dose-only effect; inactive = no such curve, though single readings can be large or run the other way. The list shows a part of the results.

Assay: Primary qHTS for Identification of Small Molecule Inhibitors of Huntingtin Promoter Activity; also: nearly all actives have a fitted effect of over 50% in size
Conditions: HEK293 HTT promoter firefly luciferase reporter (activity 0% = vehicle and -100% = no light), 24 h; series mostly up to 57.5 µM; activity change, negative = inhibition: at the top concentration
How it was run: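 Firefly luciferase readout (Dual-Glo, 10 min RT) after 24 h, 37 °C compound exposure (final up to 57.5 uM) of HEK293 reporter cells cultured 24 h beforehand; PTC124 at 50 uM final as control inhibitor; activity scaled vehicle 0%, zero RLU -100%.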
Potency is read from the fitted curve at half-maximal effect.

SMILES	activity change, negative = inhibition	Potency
CCOc1ccc(NC(=O)c2oc3ccccc3c2NC(=O)Cc2ccc(OC)c(OC)c2)cc1	inactive: 5.67%	–
O=C(Nc1ccc(O)c(-c2nc3ccccc3o2)c1)c1cccs1	inactive: -10.3%	–
Cc1ccc(C)c(CN2C(=O)c3ccccc3Sc3ccc(C(=O)NCCCOC(C)C)cc32)c1	inactive: -17.1%	–
O=C(CSc1n[nH]c(-c2ccccc2Cl)n1)N1CCN(c2ccc(F)cc2)CC1	inactive: -19.9%	–
CCOC(=O)c1ccc(N2C(=O)c3n[nH]c(C)c3C2c2ccc(C(C)C)cc2)cc1 (stereo unspecified)	inactive: 3.74%	–
CC(C)c1nn2c(=O)cc(COC(=O)c3ccc(NC(=O)c4ccccc4Cl)cc3)nc2s1	inactive: -11.7%	–
CCC(Sc1nc2ncccc2[nH]1)C(=O)Nc1ccccc1F (stereo unspecified)	inactive: -26%	–
COc1ccc2c(CNCc3cccs3)c(C(=O)O)n(Cc3ccccc3C)c2c1	inactive: -2.68%	–
COc1cc(OC)c(N(C)C(=O)c2cc3c(s2)-c2ccccc2OC3)cc1Cl	inactive: -21.4%	–
O=C(OCC1CCCO1)c1ccc2c(c1)N(Cc1ccc(F)cc1)C(=O)c1ccccc1S2(=O)=O (stereo unspecified)	inactive: -5.91%	–
Cc1ccc(Cl)cc1NC(=O)N1CCC(CN2CCc3ccccc3C2)CC1	inactive: -28.4%	–
CCC(=O)NCc1nc2ccccc2n1Cc1ccccc1	inactive: -7.39%	–
Cn1cccc1-c1cc2n(n1)CCC(=O)N2CC(=O)Nc1ccc(F)cc1Cl	inactive: 0%	–
Cc1ccc(S(=O)(=O)N2CCCc3cc(NC(=O)c4cccc(Cl)c4)ccc32)cc1	inactive: -25.1%	–
CCOC(=O)c1c(C)[nH]c(C)c1S(=O)(=O)N1CCC(C(=O)NCc2ccc(OC)cc2)CC1	inactive: -4.44%	–
Cc1c(NC(=O)Cc2ccccc2)cccc1-c1nc2cccnc2s1	inactive: -7.85%	–
CCOc1ccc(NC(=O)c2cc3nc(-c4ccc(OC)cc4)cc(C(F)(F)F)n3n2)cc1	inactive: -8.16%	–
COC(=O)c1ccc2c(=O)n(CCCCCC(=O)N3CCN(c4cccc(C)c4C)CC3)c(=O)[nH]c2c1	inactive: -26.8%	–
COCCCNc1nc2c(-c3cccc(Br)c3)nnn2c2ccccc12	inactive: 3.74%	–
CCS(=O)(=O)N1CCc2cc(C(=O)NCc3ccc(C)cc3)ccc21	inactive: -14.9%	–
O=C(CSc1nc2c([nH]c3ccccc32)c(=O)n1-c1ccc(F)cc1)Nc1ccc2c(c1)OCCO2	inactive: -23.6%	–
Cc1cccc(-c2cc(-c3ccccc3)nc(SCC(=O)Nc3ccccc3)c2C#N)c1	inactive: -2.62%	–
Cc1ccc(S(=O)(=O)N(CC(O)Cn2c3ccccc3c3ccccc32)c2cccc(C(=O)NCCO)c2)cc1 (stereo unspecified)	inactive: -24.6%	–

SMILES	activity change, negative = inhibition	Potency
CCC(Cn1nnc2ccccc2c1=O)NC(=O)Nc1ccccc1Cl (stereo unspecified)	inactive: -14.5%	–
CN1CCN(CC(=O)N2c3ccccc3C(=O)Nc3cccnc32)CC1	inactive: -2.71% [at 6.01 µM]	–
Cc1c(C(=O)NCc2ccc(Cl)cc2)sc2nc3n(c(=O)c12)CCC3	inactive: -3.71%	–
COCCNC(=O)CN1C(=O)CCn2nc(-c3cn(C)c4ccccc34)cc21	inactive: -17.4%	–
COc1ccc(-c2nc3n(n2)C(c2ccccc2)C(C(=O)Nc2cccnc2)=C(C)N3)cc1 (stereo unspecified)	inactive: -25.7%	–
CCOC(=O)N1CCN(CCC(=O)Nc2cccc(F)c2)CC1	inactive: -11.4% [at 11.5 µM]	–
Cc1c(C(=O)O)oc2c1-c1nn(Cc3ccccc3Cl)cc1CC2	inactive: -28%	–
COc1cc([C@@H]2Nc3c(F)cccc3[C@@H]3C=CC[C@@H]32)cc(Br)c1OC	inactive: -23%	–
CC(=O)N(CC(O)CO)c1c(I)c(C(=O)NCCO)c(I)c(C(=O)NCC(O)CO)c1I (stereo unspecified)	inactive: 5.02%	–
COc1ccc2c(Sc3ccc(C)cc3)c(C(=O)NC(C)c3ccccc3)[nH]c2c1 (stereo unspecified)	inactive: -18.9%	–
Cc1ccc(Sc2ccc(N3CCC(C(=O)Nc4ccc(Cl)cc4)CC3)nn2)cc1	inactive: -9.77%	–
CCc1ccc(C(=O)c2cn(CC(=O)NCc3ccc(C)cc3)c3nc(C)ccc3c2=O)cc1	inactive: -4.17%	–
CCOC(=O)CCNC(=O)N1CCN(S(=O)(=O)c2ccc3c(ccn3C)c2)CC1	inactive: -27.2%	–
Cc1ccc(N2C(=O)C(CC(=O)Nc3ccc(F)cc3)N(Cc3ccc4c(c3)OCO4)C2=O)cc1 (stereo unspecified)	inactive: -17.9%	–
Cc1ccc(CNC(=O)c2ccc3c(c2)NC(=O)C(CS(=O)(=O)Cc2cccc(F)c2)N3)cc1 (stereo unspecified)	inactive: -16.5%	–
CC(=O)c1ccc(NC(=O)c2cc3c(=O)oc4ccc(C)cc4c3s2)cc1	inactive: -13.1%	–
O=C(CSCn1nnc2c(=O)[nH]c(Cc3ccc(F)cc3)nc21)Nc1ccccc1	inactive: 14.5%	–
Cc1cccc(N2C(=O)C(CC(=O)Nc3cccc(F)c3)N(CCc3ccncc3)C2=O)c1 (stereo unspecified)	inactive: -9.96%	–
COc1ccc(NC(=O)C2=CC(c3ccc4c(c3)OCO4)=NS(=O)(=O)N2C)cc1OC	inactive: -33.1%	–
O=S(=O)(c1ccc(Cl)cc1)c1nc(-c2ccccc2F)oc1NCc1ccccc1	inactive: -5.25%	–
COc1ccc(OC)c(CC2C(=O)Nc3ccc(Br)cc32)c1 (stereo unspecified)	–	active: 20 µM
COC(=O)c1cc2sccc2n1Cc1ccc(F)cc1Cl	inactive: -18.7%	–
Cc1cc(N2CCN(c3cc(Cl)ccc3C)CC2)n2nc(-c3ccccc3)nc2n1	inactive: -3.63%	–

SMILES	activity change, negative = inhibition	Potency
C[C@H](CCC(=O)O)[C@H]1CC[C@H]2[C@@H]3[C@H](O)C[C@@H]4C[C@H](O)CC[C@]4(C)[C@@H]3CC[C@]12C	inactive: -3.87%	–
CCCCNC(=O)C1CCC(Cn2c(=O)c3sccc3n(CC(=O)Nc3ccccc3)c2=O)CC1 (stereo unspecified)	inactive: -5.89%	–
O=C(COc1ccc(F)cc1)Nc1ccc2nc(SCCOc3ccccc3)sc2c1	inactive: -13.8%	–
COCCn1c(=N)c(C(=O)NC2CCCC2)cc2c(=O)n3cc(C)ccc3nc21	inactive: -3.21%	–
O=C(Nc1ccccc1C(=O)OCc1cc(=O)n2ccsc2n1)c1ccccc1Cl	inactive: 5.62%	–
CCN(CC)CCNC(=O)c1cn(CC)c2ccc(S(=O)(=O)N3CCc4ccccc4C3)cc2c1=O	inactive: -3.52%	–
CCC(=O)N1CCc2cc(Br)cc(S(=O)(=O)N3CCN(c4cc(C)ccc4C)CC3)c21	inactive: -3.07%	–
COc1cc(-c2cc3n(C)c(C)c(CCC(=O)NC4CCCCC4)c(=O)n3n2)cc(OC)c1OC	inactive: -0.992%	–
CCOC(=O)c1cc(-c2ccc(C)cc2)n(CCC(=O)NCCc2ccc(C)cc2)c1C	inactive: -22.9%	–
CCC(=O)N1CCc2cc(Br)cc(S(=O)(=O)CCC(=O)Nc3ccc(Cl)cc3)c21	inactive: -9.95%	–
Cc1cccc(C)c1NC(=O)CCC(=O)N1Cc2ccccc2Oc2ncccc21	inactive: -15.5%	–
COc1ccc(Oc2nc3c(c(=O)n(C)c(=O)n3C)n2Cc2ccc(Cl)cc2Cl)cc1	inactive: -12.6%	–
CC(=O)N(CC(O)CO)c1c(I)c(C(=O)NCC(O)CO)c(I)c(C(=O)NCC(O)CO)c1I (stereo unspecified)	inactive: 14%	–
O=C(NC1CCN(Cc2ccccc2)CC1)c1ccc(Cn2c(=O)c3ccccc3n(Cc3cccc(F)c3)c2=O)cc1	inactive: -8.24%	–
Cc1ccc2c(=O)c(C(=O)c3ccc(Cl)cc3)cn(CC(=O)Nc3ccc4c(c3)OCCO4)c2n1	inactive: -18.7%	–
Cc1cccc(C(=O)NCc2nc3ccccc3n2Cc2ccccc2Cl)c1	inactive: -8.08%	–
O=C(Nc1cccc(OCc2cc(=O)n3ccccc3n2)c1)Nc1cccc(C(F)(F)F)c1	inactive: 27.9%	–
COc1cccc(NC(=O)Cn2c(=O)n(Cc3ccc(C(=O)NCc4ccc(C)cc4)cc3)c(=O)c3ccccc32)c1	inactive: 2.03%	–
CCOC(=O)c1c(C)n(-c2ccccc2)c2ccc(OC(=O)c3c(F)cccc3F)cc12	inactive: -9.7%	–
CCOc1ccc(Cn2c(CNS(=O)(=O)c3ccc(C(C)(C)C)cc3)nc3cccnc32)cc1	inactive: -17.9%	–
CCOc1ccc(CNC(=O)C2=Cc3cccc(OC)c3OC2)cc1	inactive: 43.8%	–
COc1ccc(CCNC(=O)C2c3ccccc3C(=O)N2Cc2ccccc2)cc1OC (stereo unspecified)	inactive: -7.3%	–
Cc1ccccc1OCC(=O)Nc1ccc2nc(SCC(=O)N3CCOCC3)sc2c1	inactive: -21.4%	–

SMILES	activity change, negative = inhibition	Potency
CCOc1ccc(NC(=O)CCNS(=O)(=O)c2cccs2)cc1	inactive: 11.5%	–
Cc1cc(Nc2ccccc2O)nc(C)n1	inactive: -4.01%	–
Cc1ccc(C)c(S(=O)(=O)n2nc(C)c(S(=O)(=O)N3CCCCCC3)c2C)c1	inactive: -13.3%	–
COc1ccc(NC(=O)CCCN2C(=O)CCn3nc(-c4cn(C)c5ccccc45)cc32)cc1	inactive: -23.2%	–
Cc1cccc(C)c1-n1ncc(C(=O)NCCN2CCN(C)CC2)c1C1CCN(C(=O)OC(C)(C)C)CC1	inactive: -23.2%	–
CCOc1ccc(C(=O)NCc2nc(-c3ccc(Cl)cc3)no2)cc1OCC	inactive: 4.71%	–
CCN(Cc1ccccc1)S(=O)(=O)c1ccc(F)c(C(=O)Nc2cc(C)ccc2OC)c1	inactive: -7.02%	–
COC(=O)c1sc2cccc(F)c2c1S(=O)(=O)N1CCN(c2cccc(C)c2)C(C)C1 (stereo unspecified)	inactive: -23.4%	–
CC1CCc2c(sc(NC(=O)CCCOc3ccccc3)c2C(N)=O)C1 (stereo unspecified)	inactive: 0.582%	–
CC(C)(C)OC(=O)N1CCC(c2c(C(=O)N3CCN(C(=O)c4ccco4)CC3)cnn2-c2ccc(F)cc2F)CC1	inactive: -10.5%	–
CCCOC(=O)c1c(NC(=O)c2cc3ccccc3c(=O)o2)sc2c1CCC(C)C2 (stereo unspecified)	inactive: -14%	–
COc1ccc(-c2cn3c(C)c(C(=O)Nc4cc(C)cc(C)c4)sc3n2)cc1	inactive: -29.8%	–
CCOC(=O)c1cnc2c(Cl)cc(Cl)cc2c1Nc1ccccc1OC	inactive: -2.52%	–
Cc1ccc(-c2nnc3c4ccccc4c(C)nn23)cc1NC(=O)c1ccccc1	inactive: 11.2%	–
COC(=O)c1ccc(Cn2nnc3c(=O)[nH]c(C4CCCN(S(=O)(=O)c5ccccc5Cl)C4)nc32)cc1 (stereo unspecified)	inactive: -7.74%	–
CCc1cccc(NC(=O)CN(C)S(=O)(=O)c2ccc3[nH]c4c(c3c2)CCCC4)c1	inactive: -24.5%	–
CCc1ccccc1-n1c(N)c(C(=O)OC)c2nc3ccccc3nc21	inactive: -21.2%	–
COc1cc(NC(=O)c2nnn(CC(=O)Nc3cc(C)ccc3C)c2N)cc(OC)c1	inactive: -10.1%	–
CCOc1cc(C(=O)Nc2ccc3c(c2)n(C)c(=O)c(=O)n3C)cc(OCC)c1OCC	inactive: -3.1%	–
CCOc1ccc(-n2c(SCC(=O)Nc3ccc(CC)cc3)nc3c(oc4ccccc43)c2=O)cc1	inactive: -14.6%	–
CCOC(=O)CCc1c(C)nc2cc(-c3cc(OC)cc(OC)c3)[nH]n2c1=O	inactive: 6.87%	–
COc1cc(NC(=O)c2cc(-c3cccc(OC)c3)n[nH]2)cc(OC)c1	inactive: 2.43%	–
